Measured values from PubChem BioAssay AID602310 (National Center for Advancing Translational Sciences (NCATS), 2012).
Screen size: about 410,000 compounds; about 310 (0.076%) were called active. Inconclusive means that the source gave no clear call. Such entries were picked first, then a sample of the others. Calls follow the shape of the dose curve; as a rule, active = well fitted curve in the direction sought with a large enough effect; inconclusive = small, poorly fitted or top-dose-only effect; inactive = flat fitted curve, though single readings scatter. Potencies beside an inconclusive call are fits to weak or partial responses and may not hold up.

biological target: DNA dC->dU-editing enzyme APOBEC-3G (Homo sapiens) (UniProt Q9HC16); assay: qHTS for Inhibitors of Vif-A3G Interactions: qHTS; conditions: HeLa A3G-eYFP + Vif (tagged APOBEC3G with the HIV-1 protein that degrades it), YFP fluorescence, overnight; series mostly up to 46.1 µM; activity, negative = active: at the top concentration; also: nearly all actives have a fitted effect of over 60% in size;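 as to activity, negative = active: hits raise eYFP signal because A3G escapes Vif-driven loss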
Source text: The recent discovery and characterization of host restriction factors, which provide a potent defense to invading retroviruses, has provided new targets for antiviral drug development. APOBEC3G (A3G) and APOBEC3F (A3F) are potent cytidine deaminases that block HIV-1 replication; HIV-1 expresses the Vif protein, which counteracts A3G and A3F by binding to them and inducing their proteasomal degradation. The Vif-A3G and Vif-A3F interactions provide two potential targets for development of small molecules which can interfere with the ability of Vif to degrade A3G or A3F. […] To identify inhibitors that can interfere with Vif mediated degradation of A3G and A3F, we have developed Hela cell lines that stably express A3G or A3F tagged with eYFP at the C-terminal end (A3G-eYFP or A3F-eYFP, respectively) and Vif. In the absence of an inhibitor, Vif induces degradation of A3G-eYFP and A3F-eYFP, and the cells are not fluorescent. In the presence of an inhibitor, it is expected that Vif will be unable to degrade A3G-eYFP and/or A3F-eYFP, resulting in an increase in yellow fluorescence. In this assays Vif A3G was screened against the Molecular Library Small Molecule Repository (MLSMR). NIH Chemical Genomics Center [NCGC] NIH Molecular Libraries Probe Centers Network [MLPCN] MLPCN Grant: MH093245 Assay Submitter (PI): Vinay Pathak, National Cancer Institute
5 uL of 700 cells/well of A3G-YFP cells are dispensed into black, clear bottom plates. The plates are incubated overnight at 37 deg C. 23 nL of compounds are added by pintool. The plates are incubated overnight at 37 deg C and then read on the TTP Acumen (Ex 488/ Em 500-530).
% is scaled to controls: 0 for no effect and ±100 for the full control effect; potency is read from the fitted curve at half-maximal effect; tags tell the direction and shape of the fitted curve.

Sequence of UniProt Q9HC16 (Q9HC16 whole entry, looked up): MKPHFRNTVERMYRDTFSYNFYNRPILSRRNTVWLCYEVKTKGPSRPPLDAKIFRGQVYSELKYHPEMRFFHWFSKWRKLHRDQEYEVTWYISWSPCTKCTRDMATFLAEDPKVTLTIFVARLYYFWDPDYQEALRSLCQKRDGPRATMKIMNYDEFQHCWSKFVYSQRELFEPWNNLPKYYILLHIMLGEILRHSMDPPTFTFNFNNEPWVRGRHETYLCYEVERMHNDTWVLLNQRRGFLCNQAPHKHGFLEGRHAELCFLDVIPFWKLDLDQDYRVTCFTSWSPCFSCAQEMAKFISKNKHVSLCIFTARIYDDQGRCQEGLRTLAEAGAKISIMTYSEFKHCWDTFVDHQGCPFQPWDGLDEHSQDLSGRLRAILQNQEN

SMILES	Potency	activity, negative = active
NNC(=O)c1nc[nH]c1C(=O)Nc1ccccc1[N+](=O)[O-]	inconclusive: 12.6 µM [inhibitor, single point]	–
CCOC(=O)c1sc(Nc2ccc(F)cc2)nc1C	inconclusive: 35.5 µM [inhibitor, partial curve, poor fit]	–
CC(=O)Nc1ccc(-c2ccnc3c2CC(C(=O)Nc2ccccc2)O3)cc1 (centres undefined)	inconclusive: 6.31 µM [inhibitor, partial curve, poor fit]	–
O=C(NCC(c1cccs1)N1CCOCC1)c1ccc(Cl)s1 (centres undefined)	inconclusive: 2.51 µM [inhibitor, full curve, poor fit]	–
CC1=Nc2cc(C(=O)NCc3ccco3)ccc2Sc2ccc(C)cc21	inconclusive: 0.631 µM [inhibitor, full curve, poor fit]	–
CCn1c(=O)cc(SCC(=O)NCc2ccc(C)o2)c2ccccc21	inconclusive: 10 µM [inhibitor, partial curve]	–
CS(=O)(=O)N1CCN(c2ccccc2NC(=O)c2ccc([N+](=O)[O-])o2)CC1	inconclusive: 17.8 µM [inhibitor, single point]	–
CC(=O)Oc1cc2c(C(C)=O)coc2c2ccccc12	–	inactive: -2.16%
CCc1ccc(-c2cc(C(F)(F)F)n3nc(C(=O)Nc4cnn(Cc5ccc(C)cc5)c4)cc3n2)s1	inconclusive: 11.2 µM [inhibitor, single point]	–
COc1ccccc1-n1cnc2cc(NC(=O)c3ccco3)ccc21	inconclusive: 7.08 µM [inhibitor, partial curve, poor fit]	–
C/C(CCC(C)C)=N\NC(=O)COc1ccccc1-c1ccccc1	inconclusive: 12.6 µM [inhibitor, single point]	–
COc1cc(/C=C2/C(=O)ON=C2c2ccccc2)ccc1O	inconclusive: 31.6 µM [inhibitor, single point]	–
CCOC(=O)Nc1ccc2nc(-c3cscn3)[nH]c2c1	inconclusive: 6.31 µM [inhibitor, partial curve]	–
Cc1nnc(SCC(=O)c2cc(C)n(-c3c(C)n(C)n(-c4ccccc4)c3=O)c2C)s1	–	inactive: -3.41%
COc1ccc(-c2nnc(SCC(=O)NNC(=O)Cc3ccccc3)n2C)cc1OC	–	inactive: 3.24%
COc1ccc(NC(=O)C(=O)c2cn(CC(=O)N3CCCC3)c3ccccc23)cc1OC	inconclusive: 12.6 µM [inhibitor, single point]	–
CCOC(=O)c1sc(NC(=O)CSc2nnc(Cc3ccccc3)o2)c(C#N)c1C	–	inactive: -2.69%
Cc1ccc(C(=O)NC(=S)Nc2cccc(NC(=O)c3ccccc3)c2)cc1[N+](=O)[O-]	–	inactive: -0.352%
COc1ccc(NS(=O)(=O)c2cc(NC(=O)c3ccc(=O)[nH]c3)ccc2N2CCCC2)cc1	inconclusive: 10 µM [inhibitor, partial curve, poor fit]	–
Cc1ccc(S(=O)(=O)Nc2ccccc2-c2ccccc2)cc1	inconclusive: 1.12 µM [inhibitor, full curve, poor fit]	–
CCCCC1C(=O)N(c2ccccc2)N(c2ccc(O)cc2)C1=O (centres undefined)	inconclusive: 3.16 µM [inhibitor, partial curve, poor fit]	–
CC(=O)Nc1cccc(C(=O)/C=C/c2ccc(N(C)C)cc2)c1	inconclusive: 35.5 µM [inhibitor, single point]	–

SMILES	Potency	activity, negative = active
CC(=NNC(=S)N(Cc1ccccn1)Cc1ccccn1)c1cnccn1	inconclusive: 2.82 µM [inhibitor, partial curve, poor fit]	–
N#CC1=C(N)NC(SCc2ccccc2)=C(C#N)C12CCCCC2	inconclusive: 1.26 µM [inhibitor, full curve, poor fit]	–
Cc1cc(/C=C2\SC(=S)N(C)C2=O)c(C)n1-c1cccc(O)c1	–	inactive: -11.7%
Cc1cc(F)ccc1NC(=O)CN1C(=O)CCc2cc(S(=O)(=O)N3CCOCC3)ccc21	–	inactive: 5.68%
O=C(CSc1nnc(Cc2ccccc2)o1)c1ccc(F)cc1	inconclusive: 35.5 µM [inhibitor, single point]	–
CN(C)Cc1c(C(=O)N/N=C/c2ccccc2OCc2c(F)cccc2Cl)nnn1-c1nonc1N	inconclusive: 10 µM [inhibitor, partial curve, poor fit]	–
CCc1ccc(S(=O)(=O)Nc2cccc(-c3ccc4nncn4n3)c2)s1	inconclusive: 6.31 µM [inhibitor, partial curve]	–
CSC(=Nc1ccccc1)N=C(SCc1ccccc1)N(C)C	inconclusive: 10 µM [inhibitor, partial curve]	–
Cc1cccc(NC(=O)CSc2c3c(nc4ccccc24)CCC3)n1	inconclusive: 25.1 µM [inhibitor, single point]	–
N#Cc1c(NC(=O)c2cccnc2)sc2c1CCC2	inconclusive: 3.55 µM [inhibitor, full curve, poor fit]	–
CC(=NNc1nc2ccccc2o1)c1cc2ccccc2cn1	inconclusive: 31.6 µM [inhibitor, single point]	–
COc1cccc(NC(=O)c2oc3ccc(S(=O)(=O)N4CCC5(CC4)OCCO5)cc3c2C)c1	inconclusive: 11.2 µM [inhibitor, partial curve, poor fit]	–
CC(C)(C)c1ccc(-n2nc(C#N)c(Cl)cc2=O)cc1	inconclusive: 35.5 µM [inhibitor, single point]	–
COc1ccccc1N1CCN(C(=O)c2[nH]c(C(F)(F)F)nc2-c2ccccc2)CC1	inconclusive: 0.562 µM [inhibitor, full curve, poor fit]	–
CN(C)C(=O)c1cccc(-c2cnc3c(NC=O)cc(-c4ccccc4N(C)C)cn23)c1	inconclusive: 22.4 µM [inhibitor, single point]	–
N#C/C(=C\c1ccc([N+](=O)[O-])o1)C(=O)Nc1ccc(F)cc1	inconclusive: 22.4 µM [inhibitor, single point]	–
COc1cc(/C=C2\C(=N)N3N=C(N4CCOCC4)SC3=NC2=O)ccc1OC(=O)c1ccccc1	–	inactive: -10.4%
CC(C)(C)CC(C)(C)N=C1Nc2ccc([N+](=O)[O-])cc2N[C@]12C[C@H]1CCCC(=O)N3CC[C@@H](C2)[C@@H]13	–	inactive: -8.4%
CC(=NNc1nc2ccccc2o1)c1ncccn1	inconclusive: 3.98 µM [inhibitor, full curve, poor fit]	–
COc1cc(/C=C2/C(=N)N3C=CSC3=NC2=O)ccc1OCCCOc1ccccc1C	–	inactive: -11.4%
OCC1(Cc2ccccc2)CCN(Cc2cnc(-c3cccc4ccccc34)nc2)CC1	–	inactive: 7.9%
O=C(Nc1ccccc1N1CCCCC1)c1ccc([N+](=O)[O-])o1	inconclusive: 22.4 µM [inhibitor, single point]	–

SMILES	Potency	activity, negative = active
COc1c(C)cc(C(O)c2ncc(-c3ccccc3)[nH]2)cc1C (centres undefined)	inconclusive: 35.5 µM [inhibitor, single point]	–
CC(=O)c1sc2nc(-c3cccs3)cc(C(F)(F)F)c2c1N	inconclusive: 2.82 µM [inhibitor, full curve, poor fit]	–
FC(F)Oc1ccccc1/C=N/n1cnc2ccccc21	–	inactive: -1.07%
CCCCc1ccc(NC(=O)CN(C)CC(=O)Nc2ccccc2Cl)cc1	–	inactive: 0.552%
COc1ccc(N2CCN(C(=O)C(=O)c3cn(CC(=O)N4CCCC4)c4ccccc34)CC2)cc1	inconclusive: 17.8 µM [inhibitor, single point]	–
O=C(OCc1ccc([N+](=O)[O-])cc1)c1cc([N+](=O)[O-])ccc1N1CCOCC1	inconclusive: 22.4 µM [inhibitor, single point]	–
CC1C=CC=CC=CC=CC=CC=CC=CC(OC2OC(C)C(O)C(N)C2O)CC2OC(O)(CC(O)CC(O)C(O)CCC(O)CC(O)CC(=O)OC(C)C(C)C1O)CC(O)C2C(=O)O (centres undefined)	inconclusive: 2.82 µM [inhibitor, full curve, poor fit]	–
COc1ccc(-c2csc(NC(=O)CSc3n[nH]c(N)n3)n2)cc1	–	inactive: -1.52%
C/C=C/C=C/C(=O)[C@@H]1[C@@H]([C@]2(C)OC(=O)C(C)=C2O)[C@H]2/C(=C(O)/C=C/C=C/C)C(=O)[C@]1(C)C(=O)C2(C)O (some centres undefined)	inconclusive: 22.4 µM [inhibitor, single point]	–
COc1ccc(OC)c(/C=C2\C=Cc3ccccc32)c1	inconclusive: 15.8 µM [inhibitor, single point]	–
COc1ccc(-c2cc(NC(C)=O)c3ncc(-c4cccc(C(C)=O)c4)n3c2)cc1OC	inconclusive: 12.6 µM [inhibitor, single point]	–
COc1cccc(C2NC(=S)NC(C)=C2C(=O)c2ccccc2)c1OC (centres undefined)	inconclusive: 2.24 µM [inhibitor, full curve, poor fit]	–
CCN(c1ccc(NC(=O)COC(=O)c2ccc3ccccc3n2)cc1)C(C)C	–	inactive: 1.16%
Cc1cc(C)c(S(=O)(=O)N2CCN(C(=O)c3c(C)nn(-c4ccccc4)c3Cl)CC2)c(C)c1	inconclusive: 15.8 µM [inhibitor, single point]	–
O=C(COc1cccnc1[N+](=O)[O-])Nc1cccc2ccccc12	–	inactive: -6.99%
COCCCNc1nc2ccccc2nc1NS(=O)(=O)c1ccccc1	–	inactive: 0.693%
FC(F)(F)c1nnc2c3ccccc3c(Cl)nn12	inconclusive: 7.08 µM [inhibitor, partial curve, poor fit]	–
Nc1nnc(SCc2nc3scc(-c4ccccc4)c3c(=O)[nH]2)s1	inconclusive: 28.2 µM [inhibitor, partial curve, poor fit]	–
O=C(CCC1N=C2c3ccccc3N=C(SCc3ccc(Cl)cc3)N2C1=O)NC1CCCCC1 (centres undefined)	–	inactive: 2.46%
c1ccc(N2CCCCC2)c(Nc2nc3ccccc3n3cnnc23)c1	–	inactive: -0.52%
